# Assay results published in PubChem BioAssay AID1671188 (National Center for Advancing Translational Sciences (NCATS), 2021).
# Out of some 100,000 compounds screened, about 250 (0.25%) were called active. Inconclusive results, whose numbers are uncertain, are shown with a selection of clear calls. Calls follow the shape of the dose curve; as a rule, active = well fitted inhibition curve with a large enough effect; inconclusive = small, poorly fitted or top-dose-only effect; inactive = flat fitted curve, though single readings scatter. Potencies of inconclusive entries are left out as doubtful fits.
# Target: Alanine aminotransferase 2 (Homo sapiens) (UniProt Q8TD30)
# UniProt Q8TD30, sequence (Q8TD30 whole entry, looked up): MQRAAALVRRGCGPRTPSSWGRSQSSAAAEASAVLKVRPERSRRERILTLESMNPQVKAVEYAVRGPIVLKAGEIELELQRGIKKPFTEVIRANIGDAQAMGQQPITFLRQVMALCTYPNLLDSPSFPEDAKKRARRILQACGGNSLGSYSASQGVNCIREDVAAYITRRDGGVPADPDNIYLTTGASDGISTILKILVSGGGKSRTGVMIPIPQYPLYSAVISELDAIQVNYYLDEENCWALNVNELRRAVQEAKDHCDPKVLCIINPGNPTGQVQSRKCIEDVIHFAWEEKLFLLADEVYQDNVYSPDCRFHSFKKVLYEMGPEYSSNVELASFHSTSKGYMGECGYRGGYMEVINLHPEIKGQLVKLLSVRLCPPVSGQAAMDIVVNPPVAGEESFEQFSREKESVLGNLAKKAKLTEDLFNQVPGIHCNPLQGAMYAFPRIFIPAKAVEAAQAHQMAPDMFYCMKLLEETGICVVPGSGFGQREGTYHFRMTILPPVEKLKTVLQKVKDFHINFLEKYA
# Assay: Primary qHTS assay for inhibitors of Glutamate pyruvate transaminase 2 (GPT2); also: nearly all actives have a fitted effect of over 60% in size
# Details: Recombinant GPT2, coupled pyruvate oxidase/HRP Amplex Red fluorescence; series mostly up to 57.7 µM
# How it was run: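 Fluorescence of coupled pyruvate oxidase/HRP/Amplex Red system (50uM Amplex, 30 min, dark) reports pyruvate formed by GPT2. Enzyme reaction: 10ng/uL GPT2, 2mM L-alanine, 250uM a-KG, 30 min room temperature, pH 7.5; 50uM AOA control.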
# Potency is read from the fitted curve at half-maximal effect; tags tell the direction and shape of the fitted curve.
row,Compound,Potency
1,Cc1ccc(Nc2ccnc(N3CCCC(C(=O)NCc4ccc(F)cc4)C3)n2)cc1 (stereo not given),"inconclusive [inhibitor, single point]"
2,COC(=O)CNC(=O)C1CCc2nnc(-c3ccc(Cl)cc3Cl)n21 (stereo not given),"inconclusive [inhibitor, single point]"
3,COC(=O)C1=C(C)N=C2SC=C(CC(=O)N3CCCCC3C)N2C1c1ccc(OC)cc1 (stereo not given),inactive
4,COc1ccc(N2CCN(c3nc(C(=O)N4CCCC(C)C4)cs3)CC2)cc1 (stereo not given),inactive
5,CCC(NC(C)C)C(O)c1ccc(O)c(O)c1 (stereo not given),"inconclusive [inhibitor, full curve, poor fit]"
6,COc1cc(C)c(C(=O)O[C@@H]2[C@H](O)[C@@H](CO)O[C@H]2n2ccc(=O)[nH]c2=O)c(OC)c1,"inconclusive [inhibitor, single point]"
7,NCCCC(=O)N1CCCC(N2CCN(Cc3ccc4c(c3)OCO4)CC2)C1 (stereo not given),"inconclusive [inhibitor, single point]"
8,COC(=O)c1cc2c(C(F)(F)F)cc(-c3ccccc3)cc2n1O,"inconclusive [inhibitor, single point]"
9,O=C(Cc1ccc(Br)cc1)N1CCCN(c2cc(-c3ccc(F)cc3)[nH]n2)CC1,"inconclusive [inhibitor, single point]"
10,CN(C)c1ccc(O)c2c1C[C@H]1C[C@H]3[C@H](N(C)C)C(=O)C(C(N)=O)=C(O)[C@@]3(O)C(=O)C1=C2O,"inconclusive [inhibitor, single point]"
11,COc1cc(C(=O)NC2CCN(c3cc(-c4ccccc4)[nH]n3)C2)cc(OC)c1OC (stereo not given),"inconclusive [inhibitor, full curve]"
12,COc1ccc(NC(=O)N2CCc3c(nc4cc(-c5ccccc5)[nH]n4c3=O)C2)c(C)c1,"inconclusive [inhibitor, single point]"
13,Cc1cc(=O)[nH]c(CCNc2nc(-c3ccncc3)nc3c2c(C)nn3C)n1,"inconclusive [inhibitor, single point]"
14,O=C(CCNc1c(-c2ccccc2)nc2cnccn12)N1CCC(N2CCCCC2)CC1,"inconclusive [inhibitor, single point]"
15,C/C=C(\C)C(=O)OC[C@H]1O[C@H](O[C@H]2O[C@H](CO)[C@@H](O)[C@H](O)[C@H]2O[C@@H]2O[C@H](CO)[C@@H](O)[C@H](O)[C@H]2O)[C@H](O[C@@H]2O[C@H](CO)[C@@H](O)[C@H](O)[C@H]2O)[C@@H](O)[C@@H]1O,"inconclusive [inhibitor, single point]"
